Laboratory results taken from doi:10.1101/282863 (bioRxiv, 2018).

Target: Histone 4 (Saccharomyces cerevisiae) (Saccharomyces cerevisiae, UniProt P02309)
Test: time-resolved tryptophan fluorescence

B1: Cse4 W7L (single tryptophan mutant, reports the C-terminus through W178) (natural protein)
chain: not shown
binding result: binds

B2: Cse4 W178L (single tryptophan mutant, reports the N-terminus through W7) (natural protein)
chain: not shown
binding result: binds
